The values below come from the RNAGym collection of RNA variant scans (doi:10.7554/elife.90254).

Sequences and labels used below:
B1: LINE1-mini (parent)
chain: GGCAGAGCUCAACACAGCGUGGCAAAGUGGCUGUGGCUAGACUGCC

The source gives no read counts; variants with many changes may rest on few reads.

This series covers variants of B1. The series is described as follows: self-cleavage, relative activity (ratio to wild type); higher = more cleavage; in vitro, sequencing; the parent is a self-cleaving ribozyme.
Turning to C3A A6C U38C, the self-cleavage worked out at 0.22.
Turning to C3A A4C G36U, the self-cleavage was 0.08.
For the variant C3A A24G U32A, the self-cleavage amounted to 0.18.
In the case of C3A A4U A6G G17U G33C C37G U38A C46G it was 0.03; in that of C3A A26U U38A, 0.43.
In the case of C3A A16G G27U U34C, the self-cleavage is 0.07.
As to C3A A6U G7C C46A, the self-cleavage was 0.07.
Consider C3A C8A U9A C10A G35A A39U C45A, for which the self-cleavage came out at 0.01.
In the case of C3A C10G C15G G17C it was 0.03; in that of C3A C10U G27A U32A, 0.1; in that of C3A C13U U34G C37U, 0.13.
In the case of C3A A6G C15A A41G it was 0.04; in that of C3A A12U U38G G40U, 0.07.
In the case of C3A A12U C18A G27C C37A, the self-cleavage was 0.08.
In the case of C3A C13G G40A, the self-cleavage turned out to be 0.13.
In the case of C3A A6U C23A G40A C42U it was 0.19; in that of C3A A16C A25U, 0.01; in that of C3A A12C G22U C45U, 0.15.
Regarding C3A C10G A14G G21U A24C A41U, the self-cleavage amounted to 0.03.
In the case of C3A A12U A14G A25U A26G G30U it was 0.15; in that of C3A A4G G44C, 0.13; in that of C3A A16C U32G U38C, 0.08.
Turning to C3A C8U C15U, the self-cleavage came out at 0.36.
In the case of C3A C18A U20C G21U A39C it was 0.08; in that of C3A C8U A11C G22A A24G U32C G33C G36C, 0.
With C3A A4U A14U U20A A24C G29U C31U U38A, the self-cleavage came out at 0.03.
In the case of C3A A4C A14C G35C C42A it was 0.07; in that of C3A C8A A25C, 0.36.
Turning to C3A C23A A24U, the self-cleavage amounted to 0.15.
In the case of C3A C10G G40A C42G it was 0; in that of C3A C15A G29U U43C, 0.16.
In the case of C3A A12G G17C C37A A39U it was 0.24.
For C3A C10A G17U G30U, the self-cleavage came out at 0.03.
In the case of C3A C10U A14G it was 0.1; in that of C3A C10U U32G G33A, 0.07.
Regarding C3A C10A G35U, the self-cleavage is 0.08.
In the case of C3A C18U A25U A39U C42G, the self-cleavage was 0.06.
C3A A4U G5U A12G G17A A25G A26C: the self-cleavage came to 0.02.
In the case of C3A C13G A16U C45A it was 0.17.
In the case of C3A A6U A14G G22U C23G it was 0.11.
Consider C3A A16C C18A, for which the self-cleavage was found to be 0.13.
Turning to C3A C18G G33U, the self-cleavage came to 0.2.
In the case of C3A C23G C42U it was 0.12; in that of C3A C15A G17C U34A A41U, 0.05.
In the case of C3A A4G U32C G33U it was 0.08; in that of C3A A16U G19C U34G, 0.17.
For C3A C13U A16C G27U U32A, the self-cleavage was 0.31.
As to C3A A14G G35A C45U, the self-cleavage turned out to be 0.02.
As for C3A C15A A25G, the self-cleavage turned out to be 0.16.
Turning to C3A A14G C31A G33U, the self-cleavage amounted to 0.08.
In the case of C3A A6C U28A C46U it was 0.19.
In the case of C3A A14G G29U it was 0.47.
For the variant C3A A4U C18A, the self-cleavage stood at 0.1.
In the case of C3A C23G G29U G35C it was 0.27.
Consider C3A C31A G40C, for which the self-cleavage was determined as 0.1.
In the case of C3A C15A U28G U38A it was 0.12.
Consider C3A A11G G21A U32G, for which the self-cleavage stood at 0.04.
Consider C3A C8A G35U A39G, for which the self-cleavage is 1.55.
In the case of C3A A11C C13G G33U G44A, the self-cleavage came out at 0.03.
Consider C3A C8U A14G U28A G30U, for which the self-cleavage was 0.01.
In the case of C3A C15U G17A C18U G30C G40C it was 0.04; in that of C3A A11G C46U, 0.01; in that of C3A A4G C13U, 0.46.
Regarding C3A A14G C23A A41U, the self-cleavage is 0.14.
In the case of C3A C8G C13A G21U it was 0.07; in that of C3A C31A G36C A41G, 0.23.
Consider C3A A4U G30C A39G C45A, for which the self-cleavage is 0.12.
On to C3A C10G A14C, for which the self-cleavage was 0.03.
Turning to C3A C8U A16U A25G, the self-cleavage was determined as 0.07.
In the case of C3A C31G U32A it was 0.13; in that of C3A A4U G17A G22A, 0.05; in that of C3A A4U G5U U9C G21A, 0.04.
Consider C3A C13G U32C, for which the self-cleavage worked out at 0.47.
In the case of C3A C8A A14G U32A U43C it was 0.29; in that of C3A A16G A25G, 0.07.
As for C3A A16G A25U, the self-cleavage is 0.72.
In the case of C3A C15A C23U U28C U43C it was 0.04.
With C3A A12C C31A A39U C42G, the self-cleavage turned out to be 0.01.
In the case of C3A A16C A24G U32A C42A, the self-cleavage was determined as 0.28.
In the case of C3A C15U C18A U20A it was 0.11; in that of C3A C15U G29A, 2.26.
In the case of C3A A4G G7A G27U U34G it was 0.09.
On to C3A C31A G33U G40C, for which the self-cleavage is 0.05.
For C3A C8A G17U, the self-cleavage amounted to 0.61.
In the case of C3A A11G C13A G33U U38A it was 0.02; in that of C3A A4U C8G A11U, 0.01; in that of C3A C31A U43G, 0.11.
As for C3A C10A C23G, the self-cleavage came out at 0.04.
In the case of C3A C18G C42A it was 0.4; in that of C3A C10G U20A G36U A39U, 0.02.
In the case of C3A C8U C13G C37G A39C it was 2.29.
In the case of C3A C8U G29C U32C it was 0.5; in that of C3A A6C G29A U43G, 0.02.
As for C3A A12C G22U, the self-cleavage is 0.05.
In the case of C3A A14U G44A it was 0.22; in that of C3A A16U C45A, 0.03.
C3A A6U U20A G22C: the self-cleavage was 0.31.
Regarding C3A A12U A14C U20G, the self-cleavage amounted to 0.07.
In the case of C3A C10U A14U A24G G27A it was 0.08; in that of C3A C23U C37U U43A C45U, 0.15.
Regarding C3A A11C G30A, the self-cleavage came out at 0.07.
Regarding C3A A12C U32A, the self-cleavage came to 0.06.
Regarding C3A A4C U9A G33A, the self-cleavage worked out at 0.21.
In the case of C3A C8U C10A A14C G44A it was 0.04.
In the case of C3A A12G C31A G33U it was 0.19.
With C3A C10G G17C G29U C31A, the self-cleavage turned out to be 0.02.
In the case of C3A A14C G19U G35A it was 0.15.
In the case of C3A A12U G19C C46A it was 0.07; in that of C3A A6G C31U A39G, 0.11.
In the case of C3A C15G U34A, the self-cleavage was 0.01.
Take C3A C13A G17C C18A A24U C31A C37U G40C: the self-cleavage was determined as 0.23.
In the case of C3A A12G C23U U32G it was 0.02; in that of C3A A11C G29A, 0.04; in that of C3A A25C G35C, 0.07.
In the case of C3A C10G A16G C18U A24C it was 0.04.
On to C3A C18G G33A C42U, for which the self-cleavage was 0.05.
In the case of C3A A4C G5C C8U G27A it was 0.05.
In the case of C3A C10A C37A it was 0.01.
Take C3A A14G C18U G21A A41U: the self-cleavage worked out at 0.12.
Turning to C3A C10U C15G, the self-cleavage turned out to be 0.07.
Consider C3A C8U A16G G44U, for which the self-cleavage was 0.28.
In the case of C3A A16U G21A A39U it was 0.01; in that of C3A A11G C13G U34C, 0.02.
Regarding C3A A24G G27U U32G, the self-cleavage stood at 0.1.
With C3A C10A G33A C46A, the self-cleavage was determined as 0.04.
In the case of C3A A14U U28G U32A G33U G40U it was 0.19; in that of C3A A6G U9C C10U C18G C45G, 0.01; in that of C3A A26U U28G U38G C42U, 0.02.
In the case of C3A A12U G22C A39G it was 0.41; in that of C3A C31G U34A, 0.05; in that of C3A A14G G33U C37A C46U, 0.14.
In the case of C3A C15A G33A C37G it was 0.16.
On to C3A C8G U28C U34C, for which the self-cleavage was found to be 0.2.
As to C3A C10G G40C, the self-cleavage came to 0.03.
Consider C3A A4G G5A, for which the self-cleavage turned out to be 0.27.
In the case of C3A C8A G33U G40C it was 0.43; in that of C3A A25U A26U, 0.42.
In the case of C3A C13A G33C A39G it was 0.08.
In the case of C3A C18G G21A A25U C45U it was 0.16; in that of C3A A4C G7U U43A, 0.24.
For C3A C13G U20A, the self-cleavage amounted to 0.3.
Turning to C3A C13G U20C, the self-cleavage is 0.05.
In the case of C3A C8U A25U it was 1.08; in that of C3A C8U A25C, 0.86.
For the variant C3A A11U A39C G44A, the self-cleavage is 0.02.
In the case of C3A C13A U20C G22A G40U, the self-cleavage worked out at 0.21.
In the case of C3A A4G C8G G36U A39G it was 0.01.
Regarding C3A C8G C13A G36C U43G, the self-cleavage was 0.09.
In the case of C3A A6G C8G A14G G17U G19A it was 0.02.
In the case of C3A A11C A16C U38G it was 0.03.
Consider C3A C10A A14C G21A G29U G30A C31U C45U, for which the self-cleavage is 0.02.
As for C3A A26G U34A C42G, the self-cleavage was 0.1.
In the case of C3A A4U A12G G30U U38G it was 0.1; in that of C3A C10G C18A G30C G36C U38G A41C, 0.01.
C3A C8A U34C: the self-cleavage turned out to be 0.36.
For the variant C3A A6C U20C A24G, the self-cleavage amounted to 0.07.
In the case of C3A C23G G35A it was 0.1; in that of C3A C23U C42U, 0.18.
With C3A C8A C42U C45U, the self-cleavage was found to be 0.95.
In the case of C3A C10G G29U G36C A41C it was 0.02; in that of C3A C10U A25G C31A, 0.04.
In the case of C3A C18G A24U it was 0.93.
In the case of C3A C13U C15A G19C G35C G40C G44A it was 0.16; in that of C3A C13G G17C G29C G33C G40C, 0.31.
As to C3A C23A G30A U32A A39C, the self-cleavage is 0.04.
In the case of G2U U38A A39C it was 0.2; in that of C3A A6G G29A C31U, 0.14.
